Source: CN117138036A

Biological target: 混合人源IL-4、IL-5 (human), P05112
Assay: cell-based or functional assay

混合人源IL-4、IL-5 (human), P05112, sequence (P05112 25-153 limits assumed, chain 1 of 2): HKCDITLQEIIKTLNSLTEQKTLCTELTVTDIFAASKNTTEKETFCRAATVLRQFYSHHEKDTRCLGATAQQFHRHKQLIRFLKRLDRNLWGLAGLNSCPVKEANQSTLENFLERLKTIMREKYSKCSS
混合人源IL-4、IL-5 (human), P05112, sequence (P05113 20-134 limits assumed, chain 2 of 2, further chain): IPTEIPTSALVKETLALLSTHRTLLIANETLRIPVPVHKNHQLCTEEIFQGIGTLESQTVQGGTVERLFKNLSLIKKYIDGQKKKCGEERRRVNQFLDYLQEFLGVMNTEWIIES

EC50, IL4:IL5=1:1混合诱导TF-1增殖, 板7: 0.369 nM
EC50, IL4:IL5=1:1混合诱导TF-1增殖, 板8: 0.371 nM
EC50, IL4:IL5=1:2混合诱导TF-1增殖, 板9: 0.595 nM
EC50, IL4:IL5=1:2混合诱导TF-1增殖, 板10: 0.736 nM
EC50, IL4:IL5=1:3混合诱导TF-1增殖, 板11: 0.152 nM
EC50, IL4:IL5=1:3混合诱导TF-1增殖, 板12: 0.108 nM
EC50, IL4:IL5=1:4混合诱导TF-1增殖, 板13: 0.0788 nM
EC50, IL4:IL5=1:4混合诱导TF-1增殖, 板14: 0.0499 nM
EC50, IL4:IL5=2:1混合诱导TF-1增殖, 板5: 0.24 nM
EC50, IL4:IL5=2:1混合诱导TF-1增殖, 板6: 0.213 nM
EC50, IL4:IL5=3:1混合诱导TF-1增殖, 板3: 0.243 nM
EC50, IL4:IL5=3:1混合诱导TF-1增殖, 板4: 0.219 nM
试验窗口, IL4:IL5=1:1混合诱导TF-1增殖, 板7: 1.71 倍
试验窗口, IL4:IL5=1:1混合诱导TF-1增殖, 板8: 1.7 倍
试验窗口, IL4:IL5=1:2混合诱导TF-1增殖, 板9: 1.58 倍
试验窗口, IL4:IL5=1:2混合诱导TF-1增殖, 板10: 1.64 倍
试验窗口, IL4:IL5=1:3混合诱导TF-1增殖, 板11: 1.5 倍
试验窗口, IL4:IL5=1:3混合诱导TF-1增殖, 板12: 1.74 倍
试验窗口, IL4:IL5=1:4混合诱导TF-1增殖, 板13: 1.5 倍
试验窗口, IL4:IL5=1:4混合诱导TF-1增殖, 板14: 1.67 倍
试验窗口, IL4:IL5=2:1混合诱导TF-1增殖, 板5: 1.55 倍
试验窗口, IL4:IL5=2:1混合诱导TF-1增殖, 板6: 1.63 倍
试验窗口, IL4:IL5=3:1混合诱导TF-1增殖, 板3: 1.53 倍
试验窗口, IL4:IL5=3:1混合诱导TF-1增殖, 板4: 1.6 倍
B1: 4E9V10-2B3V2-2 (bispecific antibody, human IgG4 S228P)
chain: QVQLVESGGGLVQPGGSLRLSCAASGDFYCMAWFRQAPGKEREAVAAIRSGGRSTYYADSVKGRFTISRDNSKNTLYLQMNSLKAEDTAVYYCAVGVDGNCRNYWGQGTLVTVSS[in this place human IgG4 Fc with S228P (EU numbers)]ESKYGPPCPPCPQVQLVESGGGSVQAGGSLRLSCAASGNTFSFSTYCMGWFRQSPGKEREGSLATIYDASTAYAGSVKGRFTISRDNSKNILYLQMNNLRAEDTAVYYCAAARYCMFWSHPSYWGQGTQVTVSS
